In patent US9763922B2 (priority 2014, dated 2017):

These compounds were tested on MYC (assay: cells). Conditions: Homo sapiens, MV4-11, 4 h, read-out: Myc IC50 (μM).
Compound CNC(=O)N1CCc2c(c(N3CCCc4cc(-c5ccncn5)c(C#N)cc43)nn2C2CCOCC2)C1 [Example 309, 1-[3-[4-(1,3-dimethylpyrazol-4-yl)-2-fluoro-anilino]-1-tetrahydrofuran-3-yl-6,7-dihydro-4H-pyrazolo[4,3-c]pyridin-5-yl]ethanone] has an IC50 of 0.063 µM.
Compound CC(=O)N1CCc2c(c(N3CCc4cc(-c5cn(C)nc5C#N)ccc43)nn2[C@H]2CCOC2)C1 [Example 189, (S)-4-[1-(5-acetyl-1-tetrahydrofuran-3-yl-6,7-dihydro-4H-pyrazolo[4,3-c]pyridin-3-yl)indolin-5-yl]-1-methyl-pyrazole-3-carbonitrile] has an IC50 of 1.76 µM.
Work on CC(=O)N1CCc2c(c(N3CCCc4cc(-c5ccncc5Cl)c(C(F)F)cc43)nn2C2CCOCC2)C1 [Example 315, 1-[3-[6-(3-chloro-4-pyridyl)-7-(difluoromethyl)-3,4-dihydro-2H-quinolin-1-yl]-1-tetrahydropyran-4-yl-6,7-dihydro-4H-pyrazolo[4,3-c]pyridin-5-yl]ethanone] yielded an IC50 of 0.022 µM.
CC(=O)N1CCc2c(c(N3CC(c4ccccc4)Cc4cc(-c5cnn(C)c5)ccc43)nn2C2CCOC2)C1 (centres unmarked) [Example 118, 1-[3-[6-(1-methylpyrazol-4-yl)-3-phenyl-3,4-dihydro-2H-quinolin-1-yl]-1-tetrahydrofuran-3-yl-6,7-dihydro-4H-pyrazolo[4,3-c]pyridin-5-yl]ethanone] gave an IC50 of 0.809 µM.
CNC(=O)N1CCc2c(c(N3CCCc4cc(-c5cnn(C)c5)c(C(F)F)cc43)nn2C2CCCCC2)C1 [Example 375, 1-cyclohexyl-3-(7-(difluoromethyl)-6-(1-methyl-1H-pyrazol-4-yl)-3,4-dihydroquinolin-1(2H)-yl)-N-methyl-1,4,6,7-tetrahydro-5H-pyrazolo[4,3-c]pyridine-5-carboxamide] was tested, and the IC50 was 0.008 µM.
CCn1cc(-c2ccc(Nc3nn(C)c4c3CN(C(C)=O)CC4)cc2)cn1 [Example 123, 1-[3-[7-(difluoromethyl)-6-(1-methylpyrazol-4-yl)-3,4-dihydro-2H-quinolin-1-yl]-1-tetrahydrofuran-3-yl-6,7-dihydro-4H-pyrazolo[4,3-c]pyridin-5-yl]ethanone] gave an IC50 of 0.99 µM.
CNC(=O)N1CCc2[nH]nc(N3CCCc4cc(-c5cnn(C)c5)c(C(F)F)cc43)c2C1 [Example 332, 3-[7-(difluoromethyl)-6-(1-methylpyrazol-4-yl)-3,4-dihydro-2H-quinolin-1-yl]-N-methyl-1,4,6,7-tetrahydropyrazolo[4,3-c]pyridine-5-carboxamide] was tested, and the IC50 was 0.062 µM.
CC(=O)N1CCc2c(c(N3CCCc4cc(-c5cnn(C)c5)c(C(F)F)cc43)nn2C2CCS(=O)(=O)CC2)C1 [Example 323] gave an IC50 of 0.021 µM.
CC(=O)N1CCc2c(c(N3CCCc4cc(-c5cnn(C)c5)c(C#N)cc43)nn2C2CCOCC2)C1 [Example 128, 1-(5-acetyl-1-tetrahydropyran-4-yl-6,7-dihydro-4H-pyrazolo[4,3-c]pyridin-3-yl)-6-(1-methylpyrazol-4-yl)-3,4-dihydro-2H-quinoline-7-carbonitrile] showed an IC50 of 0.027 µM.
CNC(=O)N1CCc2c(c(N3CCCc4cc(-c5cccs5)c(C(F)F)cc43)nn2C2CCOCC2)C1 [Example 362, 3-[7-(difluoromethyl)-6-(2-thienyl)-3,4-dihydro-2H-quinolin-1-yl]-N-methyl-1-tetrahydropyran-4-yl-6,7-dihydro-4H-pyrazolo[4,3-c]pyridine-5-carboxamide] was tested, and the IC50 was 0.056 µM.
For CNC(=O)N1CCc2c(c(N3CCCc4cc(-c5cnn(C)c5)c(C(F)F)cc43)nn2C(C)C)C1 [Example 378, 3-(7-(difluoromethyl)-6-(1-methyl-1H-pyrazol-4-yl)-3,4-dihydroquinolin-1(2H)-yl)-1-isopropyl-N-methyl-1,4,6,7-tetrahydro-5H-pyrazolo[4,3-c]pyridine-5-carboxamide], the IC50 was 0.004 µM.
Work on CC(=O)N1CCc2c(c(N3CCCc4cc(-c5cnn(C)c5)c(Cl)cc43)nn2C2CCOCC2)C1 [Example 354, 1-[3-[7-chloro-6-(1-methylpyrazol-4-yl)-3,4-dihydro-2H-quinolin-1-yl]-1-tetrahydropyran-4-yl-6,7-dihydro-4H-pyrazolo[4,3-c]pyridin-5-yl]ethanone] yielded an IC50 of 0.024 µM.
Work on CNC(=O)c1ccc(-c2cc3c(cc2Cl)N(c2nn(C4CCOCC4)c4c2CN(C(C)=O)CC4)CCC3)cn1 [Example 353, 5-[1-(5-acetyl-1-tetrahydropyran-4-yl-6,7-dihydro-4H-pyrazolo[4,3-c]pyridin-3-yl)-7-chloro-3,4-dihydro-2H-quinolin-6-yl]-N-methyl-pyridine-2-carboxamide] yielded an IC50 of 0.029 µM.
CC(=O)N1CCc2c(c(Nc3cc(C)cc(C(=O)NC(C)C)c3)nn2C)C1 [Example 18, 3-[(5-acetyl-1-methyl-6,7-dihydro-4H-pyrazolo[4,3-c]pyridin-3-yl)amino]-N-isopropyl-5-methyl-benzamide] was tested, and the IC50 was 0.73 µM.
For CNC(=O)N1CCc2c(c(N3CCCc4cc(-c5ccc(C)nc5)c(C#N)cc43)nn2C2CCOCC2)C1 [Example 288, 1-[3-[4-fluoro-3-(1-methylpyrazol-4-yl)anilino]-1-tetrahydrofuran-3-yl-6,7-dihydro-4H-pyrazolo[4,3-c]pyridin-5-yl]ethanone], the IC50 was 0.025 µM.
Compound CNC(=O)N1CCc2c(c(N3CCCc4cc(-c5cnn(C)c5)c(Cl)cc43)nn2C2CCOCC2)C1 [Example 257, 3-[7-chloro-6-(1-methylpyrazol-4-yl)-3,4-dihydro-2H-quinolin-1-yl]-N-methyl-1-tetrahydropyran-4-yl-6,7-dihydro-4H-pyrazolo[4,3-c]pyridine-5-carboxamide] has an IC50 of 0.008 µM.
With CC(=O)N1CCc2c(c(N3CCCc4cc(-c5cnn(C)c5)c(C(F)F)cc43)nn2[C@@H]2CCNC(=O)C2)C1 (single isomer, unassigned) [Example 343] the IC50 was 0.285 µM.
Work on CC(=O)N1CCc2c(c(Nc3ccc(-c4cn(C)nc4C(F)(F)F)cc3F)nn2C)C1 [Example 34, 1-[3-[2-fluoro-4-[1-methyl-3-(trifluoromethyl)pyrazol-4-yl]anilino]-1-methyl-6,7-dihydro-4H-pyrazolo[4,3-c]pyridin-5-yl]ethanone] yielded an IC50 of 0.6 µM.
CC(=O)N1CCc2c(c(N3CCc4c3ccc(-c3cnn(C)c3)c4CO)nn2C2CCOC2)C1 (centres unmarked) [Example 220, 1-[3-[4-(hydroxymethyl)-5-(1-methylpyrazol-4-yl)indolin-1-yl]-1-tetrahydrofuran-3-yl-6,7-dihydro-4H-pyrazolo[4,3-c]pyridin-5-yl]ethanone] was tested, and the IC50 was 3.84 µM.
CC(=O)N1CCc2c(c(N3CCCc4c3ccc(-c3cnn(C)c3)c4Cl)nn2[C@H]2CCOC2)C1 [Example 97, 1-[3-[5-chloro-6-(1-methylpyrazol-4-yl)-3,4-dihydro-2H-quinolin-1-yl]-1-[(3S)-tetrahydrofuran-3-yl]-6,7-dihydro-4H-pyrazolo[4,3-c]pyridin-5-yl]ethanone] gave an IC50 of 0.149 µM.
In the case of CC(=O)N1CCc2c(c(N3CCCc4cc(-c5cc(C)n(C)n5)ccc43)nn2C2COC2)C1 [Example 35, 1-[3-[6-(1,5-dimethylpyrazol-3-yl)-3,4-dihydro-2H-quinolin-1-yl]-1-(oxetan-3-yl)-6,7-dihydro-4H-pyrazolo[4,3-c]pyridin-5-yl]ethanone], the IC50 is reported as 0.202 µM.
Work on CNC(=O)N1CCc2c(c(N3CCCc4cc(-c5ccn(C)c(=O)c5)c(C(F)F)cc43)nn2C2CCOCC2)C1 [Example 318, 3-[7-(difluoromethyl)-6-(1-methyl-2-oxo-4-pyridyl)-3,4-dihydro-2H-quinolin-1-yl]-N-methyl-1-tetrahydropyran-4-yl-6,7-dihydro-4H-pyrazolo[4,3-c]pyridine-5-carboxamide] yielded an IC50 of 0.005 µM.
For CC(=O)N1CCc2c(c(N3CCCc4cc(-c5cnn(C)c5)ccc43)nn2C)C1 [Example 65, 1-[1-methyl-3-[6-(1-methylpyrazol-4-yl)-3,4-dihydro-2H-quinolin-1-yl]-6,7-dihydro-4H-pyrazolo[4,3-c]pyridin-5-yl]ethanone], the IC50 was 0.401 µM.
Compound CC(=O)N1CCc2c(c(N3CCOc4cc(-c5cnn(C)c5)c(C(F)(F)F)cc43)nn2C2CCOCC2)C1 [Example 277, 1-[3-[7-(1-methylpyrazol-4-yl)-6-(trifluoromethyl)-2,3-dihydro-1,4-benzoxazin-4-yl]-1-tetrahydropyran-4-yl-6,7-dihydro-4H-pyrazolo[4,3-c]pyridin-5-yl]ethanone] has an IC50 of 0.021 µM.
CC(=O)N1CCc2c(c(N3CC[C@H](C)c4cc(-c5cnn(C)c5)c(C#N)cc43)nn2[C@H]2CCOC2)C1 [Example 104, (S, S)-1-(5-acetyl-1-tetrahydrofuran-3-yl-6,7-dihydro-4H-pyrazolo[4,3-c]pyridin-3-yl)-4-methyl-6-(1-methylpyrazol-4-yl)-3,4-dihydro-2H-quinoline-7-carbonitrile] showed an IC50 of 0.085 µM.
For CC(=O)N1CCc2c(c(N3CCCc4cc(-c5cnn(C)c5)c(F)cc43)nn2C2CCOCC2)C1 [Example 141, 1-[3-[7-fluoro-6-(1-methylpyrazol-4-yl)-3,4-dihydro-2H-quinolin-1-yl]-1-tetrahydropyran-4-yl-6,7-dihydro-4H-pyrazolo[4,3-c]pyridin-5-yl]ethanone], the IC50 was 0.206 µM.
CC(=O)N1CCc2c(c(N3CCCc4cc(-c5cnc(C)s5)c(C#N)cc43)nn2C2CCOCC2)C1 [Example 369, 1-(5-acetyl-1-tetrahydropyran-4-yl-6,7-dihydro-4H-pyrazolo[4,3-c]pyridin-3-yl)-6-(2-methylthiazol-5-yl)-3,4-dihydro-2H-quinoline-7-carbonitrile] gave an IC50 of 0.067 µM.
CNC(=O)N1CCc2c(c(N3CCCc4cc(-c5cnn(C)c5)c(C(F)F)cc43)nn2-c2cccnc2)C1 [Example 341, 3-[7-(difluoromethyl)-6-(1-methylpyrazol-4-yl)-3,4-dihydro-2H-quinolin-1-yl]-N-methyl-1-(3-pyridyl)-6,7-dihydro-4H-pyrazolo[4,3-c]pyridine-5-carboxamide] showed an IC50 of 0.038 µM.
Work on CC(=O)N1CCc2c(c(Nc3ccc(-c4cccnc4)cc3)nn2C)C1 [Example 119, (S, S)-1-[3-[6-(1-methylpyrazol-4-yl)-3-phenyl-3,4-dihydro-2H-quinolin-1-yl]-1-tetrahydrofuran-3-yl-6,7-dihydro-4H-pyrazolo[4,3-c]pyridin-5-yl]ethanone] yielded an IC50 of 1.03 µM.
